# The full ranking holds about 33,000 sequences; the median of “E-score (-0.5 to 0.5)” is about -0.012, and the highest 2% start at about 0.27. The list shows a part of the results.
# Target: T1, Vhr1 (UniProt P40522)
# T1 sequence: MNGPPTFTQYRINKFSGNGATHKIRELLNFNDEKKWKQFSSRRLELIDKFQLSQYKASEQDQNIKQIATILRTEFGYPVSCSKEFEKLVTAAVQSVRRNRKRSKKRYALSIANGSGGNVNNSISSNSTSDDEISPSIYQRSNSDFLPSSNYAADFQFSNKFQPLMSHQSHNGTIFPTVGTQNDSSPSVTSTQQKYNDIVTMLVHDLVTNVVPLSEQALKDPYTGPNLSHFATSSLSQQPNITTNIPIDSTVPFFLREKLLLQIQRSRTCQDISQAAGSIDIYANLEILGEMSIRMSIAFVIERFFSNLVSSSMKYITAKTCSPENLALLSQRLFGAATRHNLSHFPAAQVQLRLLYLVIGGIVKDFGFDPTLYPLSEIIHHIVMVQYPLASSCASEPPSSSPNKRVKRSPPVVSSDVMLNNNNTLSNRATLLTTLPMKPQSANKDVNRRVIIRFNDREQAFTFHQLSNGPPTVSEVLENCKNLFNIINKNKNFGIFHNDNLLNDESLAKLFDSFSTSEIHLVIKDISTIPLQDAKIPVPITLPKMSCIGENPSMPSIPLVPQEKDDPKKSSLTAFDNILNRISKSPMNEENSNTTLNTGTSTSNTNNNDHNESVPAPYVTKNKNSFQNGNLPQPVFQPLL
# Assay: PBM E-score (8-mer binding enrichment) (E-score (-0.5 to 0.5)); higher = stronger / more preferred TF binding; most listed sequences are background and not binding sites
# Conditions: protein concentration: 200 nM; construct: GST-full length
# In short: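 E-scores (a modified Wilcoxon-Mann-Whitney statistic) were assigned by the Universal PBM Analysis Suite to every ungapped eight-base word pooled with its reverse complement. The input came from universal all-10-mer Agilent arrays made double-stranded by primer extension and probed with GST-tagged yeast transcription factors at about 100-200 nM. Fluorescent anti-GST detected bound protein, and masliner normalised the scans.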
row,Sequence,PBM E-score
1,AGCCTCCA,-0.123
2,CTAGCCTA,-0.153
3,CCTGACGA,0.0859
4,CGCCCTTC,-0.179
5,AGGACGGG,-0.0357
6,TAGCGTAA,-0.0878
7,CTCTGCGC,0.0404
8,AGTATTGC,0.0488
9,GGTACAAC,0.161
10,TCCCACGA,0.187
11,CCGGACTA,0.108
12,GCTAGGTA,-0.148
13,AGGGTAAG,0.198
14,TAAACGCA,-0.125
15,AGATGAAT,0.06
16,CACACGAC,-0.014
17,AAGTTGTG,-0.00706
18,ATTACACG,0.0576
19,AACAAATA,0.116
20,AAAAACGT,-0.204
21,AGGCTTAC,-0.291
22,CGGCATAC,-0.00977
23,AGGCTGAT,0.0387
24,CCAAAAAA,-0.139
25,GCTCCCCC,-0.0539

row,Sequence,PBM E-score
1,GGAGCGAC,0.0968
2,CGTTGGGC,-0.0247
3,GAACTCTA,-0.0495
4,GAACGTAC,-0.0645
5,ATAACTCA,0.206
6,CTCTTTAA,-0.238
7,ACTCTTGA,-0.0294
8,GGGCATAA,-0.0397
9,TCAATTAA,-0.206
10,CATACGTA,0.128
11,GTGATCTA,-0.0494
12,ACCACATA,0.125
13,ACGCATCG,-0.162
14,GATAGATC,-0.0723
15,CCAGTTGA,-0.0854
16,GAGAAAGC,-0.189
17,ACTCCTGA,0.257
18,AACCACGT,0.00707
19,TACCTGCA,-0.0568
20,CACTCGGA,0.239
21,ACCCCGCT,0.0145
22,GGATGCTA,-0.109
23,ATGTCCCA,-0.215
24,ATTCCAAG,-0.00964
25,AATCATAA,0.131

row,Sequence,PBM E-score
1,TAAGTGCA,-0.0455
2,ATGTGGTC,0.167
3,CCGCTACC,0.0111
4,AGACACTA,0.0556
5,ACCCAAAT,0.013
6,GATAGGGA,-0.147
7,GAAATCAC,0.205
8,AAAATTCT,-0.252
9,CTGTTCCC,-0.103
10,CGGGGATC,-0.0678
11,AGTCGCCG,0.246
12,AAGTTGTC,0.0491
13,CAGCTCGA,0.0856
14,AGAAACGG,-0.0496
15,GCTGATTA,0.197
16,GACGCGTA,0.00616
17,GGTAACAA,-0.00432
18,CATACTAC,0.229
19,AGTACACG,0.0779
20,TACGCCCA,-0.0321
21,CGGTATAG,-0.0544
22,CATCCTTC,-0.0237
23,CTTAATGC,-0.143
24,AAACAATT,-0.011
25,AAACGGTG,-0.11

row,Sequence,PBM E-score
1,CTAATTAA,-0.259
2,AACAATAT,0.246
3,CACCGGAG,0.0088
4,AGGGGAGC,-0.0736
5,ACAAACCC,-0.137
6,GGACGGCC,0.0174
7,AAGTCTAA,-0.251
8,CAATTTAG,0.0502
9,CGGGTCGC,0.115
10,TAGGTAAA,-0.237
11,TGTAGAAA,-0.14
12,TCTCATAA,-0.00956
13,ATGCTCAC,0.0744
14,CCTTCGCC,-0.031
15,ATTCGCGG,0.042
16,ACATCTCC,0.106
17,AACCTGGA,0.0728
18,CCCCTCAG,-0.018
19,CATACAAC,0.14
20,CCGGATTC,0.0253
21,CTCCTACA,0.071
22,AACCACTT,0.111
23,AGCTTCCC,-0.131
24,TGCTACAA,-0.036
25,AATCTTCA,0.0143

row,Sequence,PBM E-score
1,CGACCCAC,0.194
2,AGGAAGCC,-0.0261
3,AAGCATTG,-0.0635
4,GAACGGAC,-0.134
5,AGGAGATC,0.0381
6,AGCCTTAA,-0.246
7,AAGGGTAC,-0.267
8,AACAAGTG,-0.155
9,GTGGAGCA,-0.0267
10,AAGTATTG,0.0622
11,GGAGCCGA,0.0464
12,CCCAGTTC,-0.0222
13,TGTCCACA,-0.0343
14,TATTTGCA,-0.0247
15,ACACTGAT,-0.107
16,GTGTTTGA,0.0645
17,GCTCCGAA,-0.0864
18,AGTATTCC,0.0833
19,CAGCACTA,0.0511
20,CTATTCGA,-0.217
21,CTTGCCGC,-0.147
22,CAAAGTCA,0.103
23,AGATGCAC,0.00583
24,GAATTCAA,0.00057
25,CCGAGGTA,-0.00187

row,Sequence,PBM E-score
1,GGCATCCA,-0.218
2,GGTTAGCA,-0.0628
3,AAAAATGC,-0.153
4,GAAGCTTC,-0.222
5,CGTTACAC,0.072
6,ATTACACC,0.0693
7,CTACGCAC,0.0486
8,GGTGTCCA,-0.0191
9,ACTGAAAG,-0.116
10,CCCTTGGA,0.0276
11,CCAGCGTA,-0.0105
12,GCGTTTCA,-0.0863
13,GAGTAGTA,0.0825
14,CCAGTACC,0.0753
15,CCTACCCG,0.0701
16,CACATAGC,0.135
17,AGCCGGGG,0.111
18,CGATCGAA,0.0119
19,ATGGCGCA,0.0297
20,AATCCGCG,-0.113
21,ACTATTTA,-0.0988
22,CTACTTAC,-0.0946
23,CATCTGAC,0.0529
24,AATTCTGT,-0.154
25,GCCGAACC,-0.118

row,Sequence,PBM E-score
1,AACAATTA,0.0736
2,GGTGGGAC,-0.021
3,AACTATCC,-0.11
4,AGCTATGC,-0.15
5,CAATGGCA,0.0943
6,ACCTACTA,0.0622
7,TTACCGAA,-0.0476
8,TGATATCA,0.043
9,ATTATGCG,0.269
10,ATAGGATC,-0.0462
11,ACTGTGAG,0.139
12,CTATCACA,0.0972
13,GCTTACCA,-0.0427
14,CAAACCTA,-0.0907
15,AGCATTCC,-0.131
16,CTTTTTTA,-0.141
17,CAACATAG,0.0191
18,CTCAAATC,-0.0641
19,AACCAAAG,0.0286
20,CCACGGCC,-0.0304
21,CCGGGGTA,-0.186
22,CCAGGGGG,-0.0261

# From the supplement of paper PMC3334620
